Data: paper PMC4336329 (PLoS ONE, 2015)
Among all 310,000 compounds or so, about 14,000 (4.5%) showed an effect of 50% or more. Effects have a minus sign here. The list shows a part of the results.

target: human ether-à-go-go-related gene (hERG) potassium channel (human, UniProt Q12809); experiment: primary screen, population patch clamp on CHO cells stably expressing hERG
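Also: peak tail current of the secondary pulse compared with the same well before compound.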

Sequence of human ether-à-go-go-related gene (hERG) potassium channel (Q12809 whole entry, looked up): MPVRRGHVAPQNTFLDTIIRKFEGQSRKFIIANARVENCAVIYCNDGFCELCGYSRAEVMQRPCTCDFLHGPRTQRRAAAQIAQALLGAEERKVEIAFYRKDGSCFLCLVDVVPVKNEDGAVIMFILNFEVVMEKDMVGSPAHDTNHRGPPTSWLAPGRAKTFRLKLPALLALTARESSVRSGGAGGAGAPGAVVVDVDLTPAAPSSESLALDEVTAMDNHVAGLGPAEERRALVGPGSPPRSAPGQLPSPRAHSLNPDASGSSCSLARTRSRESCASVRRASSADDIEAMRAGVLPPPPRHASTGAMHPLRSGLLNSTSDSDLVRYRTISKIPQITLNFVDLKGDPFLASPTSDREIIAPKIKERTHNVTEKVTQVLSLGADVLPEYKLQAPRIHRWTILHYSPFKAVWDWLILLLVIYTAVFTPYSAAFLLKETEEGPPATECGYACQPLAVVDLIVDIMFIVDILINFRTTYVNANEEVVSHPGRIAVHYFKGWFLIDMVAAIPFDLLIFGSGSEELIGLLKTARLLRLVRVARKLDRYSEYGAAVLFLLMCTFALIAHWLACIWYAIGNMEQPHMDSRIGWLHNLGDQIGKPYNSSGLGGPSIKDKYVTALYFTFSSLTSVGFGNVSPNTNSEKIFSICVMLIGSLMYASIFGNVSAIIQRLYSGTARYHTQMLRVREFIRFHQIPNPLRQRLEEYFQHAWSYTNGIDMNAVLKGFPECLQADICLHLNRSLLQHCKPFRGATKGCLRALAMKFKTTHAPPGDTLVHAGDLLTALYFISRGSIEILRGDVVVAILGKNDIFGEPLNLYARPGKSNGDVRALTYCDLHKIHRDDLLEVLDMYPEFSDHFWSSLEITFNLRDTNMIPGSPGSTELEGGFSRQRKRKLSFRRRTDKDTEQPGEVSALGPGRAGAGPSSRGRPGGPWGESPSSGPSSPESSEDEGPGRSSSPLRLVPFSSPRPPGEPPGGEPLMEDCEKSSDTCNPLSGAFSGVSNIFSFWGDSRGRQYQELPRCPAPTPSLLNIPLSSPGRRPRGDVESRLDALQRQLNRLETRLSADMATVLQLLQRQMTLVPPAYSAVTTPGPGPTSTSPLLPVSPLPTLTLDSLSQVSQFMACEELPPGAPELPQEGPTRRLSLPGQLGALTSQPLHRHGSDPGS

Row | SMILES | hERG current change (%, negative = inhibition) at 10uM [%]
1 | CCOc1ccc(-c2nnc3ccc(SCC(=O)Nc4nc5ccccc5s4)nn23)cc1 | -3.2
2 | COc1cccc(-c2[nH]nc3c2C(c2ccoc2)C(C#N)=C(N)O3)c1 (centres unmarked) | 1.53
3 | CC(=O)N1c2ccc(S(=O)(=O)NCCc3ccccc3)cc2CC1C (centres unmarked) | -20.5
4 | COc1ccccc1NC(=O)N(c1c(N)n(Cc2ccccc2)c(=O)[nH]c1=O)C1CCCC1 | -8.66
5 | CN(Cc1ccccc1)C(=O)CCC1CCN(S(C)(=O)=O)CC1 | 17.2
6 | COc1ccc(C(CNC(=O)C(C)Oc2ccc(Br)cc2)N2CCOCC2)cc1 (centres unmarked) | -4.41
7 | O=C(NC1CCSC1=O)c1ccc(Cl)cc1 (centres unmarked) | -0.357
8 | CCOC(=O)CSCC(=O)N1N=C(c2cccs2)CC1c1ccc(F)cc1 (centres unmarked) | -34.1
9 | CC1CCC/C(=N\NC(=O)Nc2ccccc2)C1 (centres unmarked) | -9.37
10 | CC(C)CC(=O)NC(=S)Nc1ccccc1C(F)(F)F | -0.604
11 | COC(=O)c1c(C)nc2ccccc2c1-c1ccccc1 | -34
12 | CCN(CCn1cccn1)C(=O)CC1C(=O)NCCN1Cc1ccc(F)cc1 (centres unmarked) | 14.6
13 | COc1cc(N)c(Cl)cc1C(=O)OCC(=O)c1cccs1 | 24.2
14 | O=C(CCCCCCC(=O)c1ccccc1)c1ccccc1 | 18.6
15 | CC(C)C1C(=O)NC(=S)N1S(=O)(=O)c1ccc(C(C)(C)C)cc1 (centres unmarked) | 13.4
16 | COc1ccc(C2=NOC3(CC(=O)N(c4ccc(C)cc4)C3=O)C2)cc1 (centres unmarked) | -3.21
17 | CCn1nccc1C(=O)Nc1ccc(C(=O)OC(C)C)cc1 | 12.9
18 | CCOC(=O)C[C@H]1c2ccc(C(F)(F)F)cc2S(=O)(=O)N1C1CCCC1 | -32
19 | Cc1nc(NCc2ccccc2)sc1C(=O)Nc1ccccc1 | 10.1

Row | SMILES | hERG current change (%, negative = inhibition) at 10uM [%]
20 | O=C(N/N=C/c1ccc(O)c([N+](=O)[O-])c1)C(O)(c1ccccc1)c1ccccc1 | 15.4
21 | COc1cccc(C2=NOC(C(=O)Nc3cccc(C(C)=O)c3)C2)c1 (centres unmarked) | -11.8
22 | O=C(N[C@@H](Cc1ccccc1)C(=O)OCc1ccccc1)c1nc[nH]c1C(=O)NCc1ccccc1 | 0.24
23 | Cc1cccc(OCCC(=O)N(C)CC(=O)Nc2cccc3ccccc23)c1 | -10.3
24 | CC(=O)COc1ccc2c3c(c(=O)oc2c1)CCCC3 | -15.9
25 | CC1(C)O[C@@H]2CC3C4C[C@H](F)C5=CC(=O)C=CC5(C)C4C(O)CC3(C)[C@]2(C(=O)CO)O1 (some centres unmarked) | 1.68
26 | COc1cc(C(C)=O)ccc1OCC(O)CNCC1(N2CCCCC2)CCCCC1.O=C(O)C(=O)O (centres unmarked) | -42.1
27 | Cn1c(=O)cc(N2CCCCC2)[nH]c1=O | 9.92
28 | O=C(C1CCC(CNS(=O)(=O)c2cccs2)CC1)N1CCN(c2ccc(F)cc2)CC1 (centres unmarked) | -29.5
29 | Cc1ccc(CCNC(=O)Cn2ccc3cc(S(=O)(=O)N4CCCC4)ccc32)cc1 | 2.09
30 | Cc1c(NC(=O)CCCN2C(=O)c3cccc4cccc(c34)C2=O)c(=O)n(-c2ccccc2)n1C | -5.07
31 | COC(=O)c1cccc(NC(=O)CSc2nc(=O)cc(N)n2-c2ccccc2)c1 | 12.1
32 | COc1ccc(-c2nc(CC(=O)O)cs2)cc1 | 6.7
33 | CCS(=O)(=O)NC(C)C(c1cccs1)N1CCN(c2ccc(F)cc2)CC1 (centres unmarked) | -8.13
34 | O=C(CN1CCN(c2ccc(F)cc2)CC1)Nc1nccs1 | -1.39
35 | O=C(Nc1ccccc1)O/N=C(\c1ccccc1)c1ccccn1 | -4.87
36 | COc1ccccc1N1CCN(CC(O)COCCOc2ccc(Br)cc2)CC1.Cl (centres unmarked) | -58.8
37 | O=C1OCC(CO)(CO)N=C1NNc1ccccc1Cl | 16.2
38 | COc1ccc(OC)c(C2C(C(=O)c3ccco3)=C(O)C(=O)N2Cc2cccnc2)c1 (centres unmarked) | 16.6

Row | SMILES | hERG current change (%, negative = inhibition) at 10uM [%]
39 | CCOc1cc2c(cc1OCC)-n1cccc1C(c1ccccc1OC)NC2.Cl (centres unmarked) | -7.52
40 | N#CCCNC(=O)CCN1CCOCC1 | 7.79
41 | CC1CCc2nn(CC(=O)N3CCN(C(=O)c4ccco4)CC3)cc2C1 (centres unmarked) | -13
42 | Cc1cccc(NC(=O)CSc2nc3ccccc3nc2N2CCCC2)c1C | -15.2
43 | O=C(NCC1CCCO1)c1ccc(Cn2c(=S)[nH]c3ccccc3c2=O)cc1 (centres unmarked) | 18.2
44 | COc1ccc(N(CC(=O)N2CCN(Cc3ccccc3)CC2)S(C)(=O)=O)cc1Cl | -4.62
45 | CCOC(=O)C1CCCN(C(=O)CN2C(=O)NC(C)(c3ccc4ccccc4c3)C2=O)C1 (centres unmarked) | -15
46 | COc1ccc(CN2CCN(Cc3ccccc3)C(CCO)C2)cc1OC (centres unmarked) | -30.7
47 | COc1ccc(C)cc1NC(=O)CN(c1ccc(C)cc1)S(C)(=O)=O | 1.61
48 | COc1ccccc1C(=O)COC(=O)CN1C(=O)c2ccccc2C1=O | 21.2
49 | CCN(CC)S(=O)(=O)c1ccc(N2CCCC2)c(NC(=O)c2ccc(OC)cc2OC)c1 | -43
50 | COc1ccc(C(NC(=O)c2ccccc2F)NC(=O)c2ccccc2F)cc1 | -1.3
51 | CCN(CC(=O)Nc1c(F)cccc1F)C(=O)c1ccccc1F | 20.3
52 | O=C(C1CC1)N1CCN(c2ccc(O)cc2)CC1 | -17.3
53 | CCOCCCNC(=O)/C(C#N)=C/c1ccccc1F | 23.5
54 | CCOc1ccccc1N1CC(C(=O)Nc2cccc(S(=O)(=O)N3CCCCC3)c2)CC1=O (centres unmarked) | -1.95
55 | Cc1ccc(S(=O)(=O)Nc2cc(S(=O)(=O)N3CCCCC3)ccc2N2CCOCC2)cc1 | 28
56 | CCCNC(=O)c1ccc(N2CCC3(CC2)CC(c2cccc(Br)c2)=NO3)c(NC(=O)c2c(Cl)cccc2Cl)c1 | 5.92
